Here are results for 74 molecules from the supplement of paper PMC10670038.

Values joined by “and” are separate entries in the source; they are usually repeats but may differ in a detail not shown here. Equal entries are not always repeated. Structures can show the parent of a compound that is named as a salt. ± gives the standard deviation of the averaged measurements. The full ranking holds about 2,000 compounds; the median of “relative cell viability vs DMSO, compound + 0.2 uM CuET” is about 1, and the lowest 2% start at about 0.25. Some of the results follow.

The subject of this assay is TE10. The experiment in a line: relative cell viability vs DMSO, compound + 0.2 uM CuET (fraction); TE10 is an esophageal squamous carcinoma line; higher = less cytotoxic. The following applies: 2 µM; co-treatment: CuET (bis(diethyldithiocarbamate)copper) 0.2 uM; 48 h. As to the method:
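TE10 ESCC cells (1,000/well, 384-well plates) were treated with Selleck bioactive library compounds at 2 uM combined with 0.2 uM CuET (copper diethyldithiocarbamate) for 48 h. Viability was read by CellTiter-Glo and expressed relative to DMSO wells. Two technical replicates (A, B).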
Consider `COc1cc(Nc2ncc3c(n2)-c2ccc(Cl)cc2C(c2c(F)cccc2OC)=NC3)ccc1C(=O)O` [Alisertib (MLN8237)], for which the relative cell viability came to 1.17 ± 0.23. Turning to `CCc1ccc(/C=C2/SC(=S)NC2=O)cc1`, the relative cell viability amounted to 1.15 ± 0.12. `Cc1ccc(Nc2nccc(N(C)c3ccc4c(C)n(C)nc4c3)n2)cc1S(N)(=O)=O` [Pazopanib]: the relative cell viability amounted to 0.583 ± 0.59. The same measure for `Cc1ccc(Nc2nccc(N(C)c3ccc4c(C)n(C)nc4c3)n2)cc1S(N)(=O)=O` [Pazopanib HCl]: 1.27 ± 0.12; for `OCC(CO)N[C@H]1C[C@](O)(CO)[C@@H](O)[C@H](O)[C@H]1O` [Voglibose]: 1.12 ± 0.13. On to `O=C(NNc1nc2cc(F)ccc2n2cccc12)c1cnccn1`, for which the relative cell viability was 1 ± 0.013.

For `CCCCCCCCCCCCCCCc1cccc(O)c1C(=O)O` [Anacardic Acid], the relative cell viability is 1.26 ± 0.019. Take `CC(C)c1cc(C(C)C)c(CC(=O)NS(=O)(=O)Oc2c(C(C)C)cccc2C(C)C)c(C(C)C)c1` [Avasimibe]: the relative cell viability came out at 1.03 ± 0.13. As for `COC(=O)/C=C/C(=O)OC` [Dimethyl Fumarate], the figure is 1.17 ± 0.053; as for `O=C(NC(Cc1cc(=O)[nH]c2ccccc12)C(=O)O)c1ccc(Cl)cc1` (centres undefined) [Rebamipide], 1.18 ± 0.056. The same measure for `CC1(C)CC[C@]2(NC(=O)C(C)(F)F)CC[C@]3(C)[C@H](C(=O)C=C4[C@@]5(C)C=C(C#N)C(=O)C(C)(C)[C@@H]5CC[C@]43C)[C@@H]2C1` [Omaveloxolone (RTA-408)]: 0.822 ± 0.016; for `CCOC(=O)c1ccc(NC2CCCCC2)c(N)c1` [Ferrostatin-1 (Fer-1)]: 1.188 ± 0.011; for `O=C1c2c(O)ccc(O)c2C(=O)c2c(NCCNCCO)ccc(NCCNCCO)c21` [Mitoxantrone HCl]: 0.699 ± 0.0095. As for `O=C1c2c(O)ccc(O)c2C(=O)c2c(NCCNCCO)ccc(NCCNCCO)c21` [Mitoxantrone], the figure is 0.6073 ± 0.0024; as for `CCOC(=O)C1=C(C)NC(C)=C(C(=O)OC)C1c1cccc(Cl)c1Cl` (centres undefined) [Felodipine], 1.05 ± 0.044; as for `CN1CCN(Cc2ccc(-c3cnc4[nH]cc(-c5ccc6[nH]ccc6c5)c4c3)cc2)CC1`, 1.08 ± 0.06.

Regarding `CCCCCCCCOc1ccccc1C(=O)Nc1ccc(C(=O)OCC[N+](C)(CC)CC)cc1` [Otilonium Bromide], the relative cell viability stood at 1.18 ± 0.35. On to `CN1CCCN(C(=O)c2cccc(-c3ccc(/C=C4/C(=O)Nc5ccc(Cl)cc54)o3)c2)CC1`, for which the relative cell viability came out at 0.6144 ± 0.005. The same measure for `CN1CCN2c3ccccc3Cc3ccccc3C2C1` (centres undefined) [Mianserin HCl]: 0.988 ± 0.26; for `CCCCc1ncc(/C=C(\Cc2cccs2)C(=O)O)n1Cc1ccc(C(=O)O)cc1` [Eprosartan Mesylate]: 1.27 ± 0.057; for `O=C(Nc1ccccc1)N1CCN(c2nc(-c3ccccc3)ns2)CC1`: 1.17 ± 0.11.

For `CC(CNC(=O)c1cccnc1)NC(=O)c1cccnc1` (centres undefined) [Nicaraven], the relative cell viability was found to be 1.17 ± 0.093. `Clc1cccc(CN=C2Nc3ccccc3NC23CCNCC3)c1` [Liproxstatin-1]: the relative cell viability is 0.905 ± 0.17. For `Cn1nc(C(C)(C)C)cc1C(=O)N[C@@H](Cc1cccc(Cl)c1)C(=O)NCC#N` [Cathepsin Inhibitor 1], the relative cell viability was 1.22 ± 0.32.

For `CN(C)CCc1c[nH]c2ccc(CS(=O)(=O)N3CCCC3)cc12` [Almotriptan Malate], the relative cell viability was determined as 0.938 ± 0.0096. For the molecule `CCc1ccc(OCc2ccccc2C(=O)Nc2ccc3nc(C)cc(N)c3c2)cc1`, the relative cell viability came to 0.256 ± 0.014. In the case of `CN(c1ncccc1CNc1nc(Nc2ccc3c(c2)CC(=O)N3)ncc1C(F)(F)F)S(C)(=O)=O`, the relative cell viability is 0.746 and 0.834 and 0.864. The same measure for `O=c1[nH]c(=O)n([C@H]2C[C@H](O)[C@@H](CO)O2)cc1I` [Idoxuridine]: 1.17 ± 0.086; for `CN1CCN(c2ccc3nc(-c4c(N)c5c(F)cccc5[nH]c4=O)[nH]c3c2)CC1` [Dovitinib (TKI-258, CHIR-258)]: 0.9943 ± 0.0019.

Regarding `CN1CCN(c2ccc3nc(-c4c(N)c5c(F)cccc5[nH]c4=O)[nH]c3c2)CC1` [Dovitinib (TKI258) Lactate], the relative cell viability was 1.18 ± 0.11. Turning to `CN1CCN(c2ccc3nc(-c4c(N)c5c(F)cccc5[nH]c4=O)[nH]c3c2)CC1` [Dovitinib (TKI-258) Dilactic Acid], the relative cell viability stood at 0.952 ± 0.059. The same measure for `C=CCNC1=C2C[C@@H](C)C[C@H](OC)[C@H](O)[C@@H](C)/C=C(\C)[C@H](OC(N)=O)[C@@H](OC)/C=C\C=C(/C)C(=O)NC(=CC1=O)C2=O` [17-AAG (Tanespimycin)]: 0.78 ± 0.089.

As for `Cc1cccc(N(C)C(=S)Oc2ccc3ccccc3c2)c1` [Tolnaftate], the relative cell viability came out at 0.927 ± 0.065. Turning to `O=C(O)c1cccnc1` [Nicotinic Acid], the relative cell viability stood at 1.09 ± 0.1. As for `CCCCc1oc2ccccc2c1C(=O)c1cc(I)c(OCCN(CC)CC)c(I)c1` [Amiodarone HCl], the figure is 0.743 ± 0.0089. As for `COc1cc2c(NC3CCN(CC4CCCCC4)CC3)nc(N3CCCN(C(C)C)CC3)nc2cc1OCCCN1CCCCC1`, the figure is 1.13 ± 0.075; as for `COc1ccc(-c2ccc3cc(C(=O)O)ccc3c2)cc1C12CC3CC(CC(C3)C1)C2` [Adapalene], 1.12 ± 0.097. On to `CC1(C)C=C(CN2C/C(=C\c3ccc(F)cc3)C(=O)/C(=C/c3ccc(F)cc3)C2)C(C)(C)N1O`, for which the relative cell viability came out at 0.216 ± 0.0066.

Regarding `NNC(=O)c1ccncc1` [Isoniazid], the relative cell viability turned out to be 1.1 ± 0.14. Consider `O=C(Nc1ncc(SCCN2CCCC2)s1)[C@]1(c2ccc(S(=O)(=O)C3CC3)cc2)C[C@H]1C1CCCCC1`, for which the relative cell viability is 0.656 ± 0.067. As to `O=C(O)CCCN1CCC(O[C@@H](c2ccc(Cl)cc2)c2ccccn2)CC1` [Bepotastine Besilate], the relative cell viability was 1.11 ± 0.17. The same measure for `CCC(=O)OCC(=O)[C@@]1(OC(=O)CC)[C@@H](C)C[C@H]2[C@@H]3CCC4=CC(=O)C=C[C@]4(C)[C@@]3(F)[C@@H](O)C[C@@]21C` [Betamethasone Dipropionate]: 1.05 ± 0.052; for `C[C@H]1C[C@H]2[C@@H]3CCC4=CC(=O)C=C[C@]4(C)[C@H]3C(=O)C[C@]2(C)[C@@]1(O)C(=O)CO` [Meprednisone]: 1.02 ± 0.055.

As to `Cc1ccc(S(=O)(=O)OCC(=O)Nc2ccc(C(=O)O)c(O)c2)cc1`, the relative cell viability stood at 1.18 ± 0.055. As for `Cc1ccc(C(=O)Nc2cccc(C(F)(F)F)c2)cc1Nc1nc(-c2cccnc2)nc2c1cnn2C`, the figure is 0.904 ± 0.024; as for `Cc1noc(-c2ccc(CSCCC(=O)O)cc2)c1NC(=O)OC(C)c1ccccc1Cl` (centres undefined), 1.08 ± 0.052; as for `COc1ccc(-c2cc(=O)c3c(OC)c(OC)c(OC)c(OC)c3o2)cc1OC` [Nobiletin], 1.05 ± 0.051. In the case of `O=c1cc[nH]c(=O)[nH]1` [Uracil], the relative cell viability stood at 1.2 ± 0.14. As for `N#Cc1c(Oc2ccc(F)c(NC(=O)Cc3cccc(C(F)(F)F)c3)c2)ccc2nc(NC(=O)C3CC3)sc12`, the figure is 0.764 ± 0.15; as for `CCC[C@@H]1C[C@@H](C(=O)N[C@@H]([C@H]2O[C@H](SC)[C@H](O)[C@@H](O)[C@H]2O)[C@@H](C)O)N(C)C1` [Lincomycin HCl], 1.18 ± 0.025; as for `CO[C@H]1C[C@@H]2CC[C@@H](C)[C@@](O)(O2)C(=O)C(=O)N2CCCC[C@H]2C(=O)O[C@H]([C@H](C)C[C@@H]2CC[C@@H](OC(=O)C(C)(CO)CO)[C@H](OC)C2)CC(=O)[C@H](C)/C=C(\C)[C@@H](O)[C@@H](OC)C(=O)[C@H](C)C[C@H](C)/C=C/C=C/C=C/1C`, 0.974 ± 0.031.

Take `COc1ccc(-c2cc(=O)c3c(OC)c(OC)c(OC)c(OC)c3o2)cc1` [Tangeretin]: the relative cell viability was 1.091 ± 0.0071. As for `O=C(O)c1ccc(C=C2SC(=S)N(c3cccc(C(F)(F)F)c3)C2=O)cc1`, the figure is 0.926 ± 0.022.

On to `CC12CC3CC(C)(C1)CC(N)(C3)C2` [Memantine HCl], for which the relative cell viability was 1.23 ± 0.16. The same measure for `CN1C(C(=O)Nc2ccccn2)=C(O)c2sc(Cl)cc2S1(=O)=O` [Lornoxicam]: 0.92 ± 0.05; for `Cc1ccc(CNc2ncnc3ccc(-c4ccc(CO)o4)cc23)o1`: 0.984 ± 0.068; for `O=C(Nc1cccnc1)N1CCC(Cc2cccc(Oc3ccc(C(F)(F)F)cn3)c2)CC1`: 1.24 ± 0.067. The same measure for `Cc1cc(C)nc(NS(=O)(=O)c2ccc(NC(=S)NC(=O)COc3ccc(Br)cc3Cl)cc2)n1`: 1.052 ± 0.0024; for `CC(C)c1nc(CN(C)C(=O)N[C@@H](CCN2CCOCC2)C(=O)N[C@H](CC[C@H](Cc2ccccc2)NC(=O)OCc2cncs2)Cc2ccccc2)cs1` [Cobicistat (GS-9350)]: 0.957 ± 0.025.

Turning to `Cc1cccc(-c2nn3c(c2-c2ccnc4ccc(C(N)=O)cc24)CCC3)n1`, the relative cell viability came out at 1.16 ± 0.074. The same measure for `O=C(c1ccccc1)c1ccc2nc(NC(=O)c3csc(C4CCN(c5ncnc6ccsc56)CC4)n3)[nH]c2c1`: 0.875 ± 0.087. The same measure for `Cn1c(N2CCCCS2(=O)=O)nc(C(=O)NCc2ccc(F)cc2)c(O)c1=O`: 1.24 ± 0.071. The same measure for `C[N+](C)(C)C[C@H](O)CC(=O)[O-]` [L-carnitine]: 0.9637 ± 0.0086; for `Cn1cnc(=N)c2[nH]cnc21` [3-Methyladenine]: 0.95 ± 0.064. In the case of `CCS(=O)(=O)N1CCN(c2ccc(Nc3ncc(C(N)=O)c(NC4CC4)n3)cc2)CC1`, the relative cell viability worked out at 1.12 ± 0.16. As for `C[N+](C)(C)CC(O)CC(=O)[O-]` (racemic) [DL-Carnitine HCl], the figure is 0.987 ± 0.082; as for `Nc1nc(N)c2nc(-c3ccccc3)c(N)nc2n1` [Triamterene], 1.04 ± 0.17. The same measure for `C=C1CC[C@H](O)C/C1=C/C=C1\CCC[C@]2(C)[C@@H]([C@H](C)/C=C/[C@H](C)C(C)C)CC[C@@H]12` [Vitamin D2]: 0.898 ± 0.099. For `C=CC[N+]1([C@H]2C[C@H]3[C@@H]4CC[C@H]5C[C@H](O)[C@@H](N6CCOCC6)C[C@]5(C)[C@H]4CC[C@]3(C)[C@H]2OC(C)=O)CCCC1` [Rocuronium Bromide], the relative cell viability was determined as 1.33 ± 0.06. The same measure for `CC(C)(C)NC(=O)[C@H]1CC[C@H]2[C@@H]3CC[C@H]4NC(=O)C=C[C@]4(C)[C@H]3CC[C@]12C` [Finasteride]: 1.06 ± 0.12. As for `Cc1ccc(C(=O)Cn2c3c(sc2=N)CCCC3)cc1` [Pifithrin-α (PFTα)], the figure is 0.853 ± 0.045. The same measure for `Cc1ccc(C(=O)N(CCCN)[C@@H](c2oc3cc(Cl)ccc3c(=O)c2Cc2ccccc2)C(C)C)cc1`: 0.658 ± 0.0021; for `Cn1nnc2c(C(N)=O)ncn2c1=O` [Temozolomide]: 1.1 ± 0.12; for `O=[N+]([O-])c1cn2c(n1)OC[C@@H](OCc1ccc(OC(F)(F)F)cc1)C2`: 1.15 ± 0.12.
